The supplement of paper PMC10126150
Values marked as one replicate rest on one cluster of the flow cell; about a third of the high ones do not repeat.
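Further: ATP exposure 15 min at 22 °C before imaging.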

What follows are sequences tested on ATP (assay: switch fluorescence ratio, 500 uM ATP over buffer (Cy3 cluster intensity, sum of 5 cycles each) (fold (ratio)); higher = stronger signal-on switching upon ATP binding; sequences stand for … in TCGTCGGCAGCGTCAGATGTGTATAAGAGACAGTTTTTTTTTTTTTTTTTTTTTTTTT…TC). Details: aptamer strand: ATP DNA aptamer (quencher-CACCTGGGGGAGTATTGCGGAGGAAGG + anchor), 100 nM annealed; ATP concentration: 500 uM; one replicate.
Method in brief: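 After annealing to 100 nM quencher-labelled ATP aptamer, Cy3-labelled switching-strand clusters on a modified Illumina MiSeq flow-cell were imaged in selection buffer. A second image followed after 15 min with 500 uM ATP at 22 °C, and five such buffer/ATP cycles were done, each separated by NaOH stripping and re-annealing. The fluorescence ratio, averaged per switch-domain sequence, is summed target-cycle over summed buffer-cycle Cy3 intensity per cluster, with clusters outside 100-1000 RFU excluded.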
CCGTTCATCA was tested, and the switch fluorescence ratio was 1.01. With CCGTTGCTCG the switch fluorescence ratio was 1.08. In the case of CCGTTTATGG, the switch fluorescence ratio was 1.01. In the case of CCGTTTGTGT, the switch fluorescence ratio was 1.06. CCGTTTGTTC was tested, and the switch fluorescence ratio was 1.15. In the case of CCGTTTTTCA, the switch fluorescence ratio was 1.01. In the case of CCTAAAACCT, the switch fluorescence ratio was 1.96. Sequence CCTAAAAGGT has a switch fluorescence ratio of 1.04. Sequence CCTAAAAGTC has a switch fluorescence ratio of 0.956. CCTAAAATGT gave a switch fluorescence ratio of 1.01. CCTAAAGCGG gave a switch fluorescence ratio of 1.33. CCTAATCGTT was tested, and the switch fluorescence ratio was 0.999. Work on CCTACAGGGT yielded a switch fluorescence ratio of 1.1. CCTACTCGC gave a switch fluorescence ratio of 1.74. Work on CCTACTGAGT yielded a switch fluorescence ratio of 1.1. Work on CCTAGCCCGT yielded a switch fluorescence ratio of 1.04. CCTAGGGTAA was tested, and the switch fluorescence ratio was 1.05. In the case of CCTAGTAGG, the switch fluorescence ratio was 1.04. Work on CCTAGTGCGT yielded a switch fluorescence ratio of 1.07. Work on CCTATAAGGC yielded a switch fluorescence ratio of 1.08. Work on CCTATACGGA yielded a switch fluorescence ratio of 1.07. CCTATCGTGG gave a switch fluorescence ratio of 1.05. CCTATGCTCC gave a switch fluorescence ratio of 2.72. In the case of CCTATGTGTT, the switch fluorescence ratio was 1.03. CCTATTAAAG showed a switch fluorescence ratio of 0.996. CCTATTGTCT showed a switch fluorescence ratio of 1.03. CCTCAGAA gave a switch fluorescence ratio of 1.39. In the case of CCTCAGGTAG, the switch fluorescence ratio was 2.14. For CCTCCTTAAG, the switch fluorescence ratio was 1.91. With CCTCGATGTG the switch fluorescence ratio was 1.09. For CCTCGCCTGA, the switch fluorescence ratio was 1.63. CCTCGGAATG was tested, and the switch fluorescence ratio was 2.96. Sequence CCTCGGGAAG has a switch fluorescence ratio of 1.21. For CCTCGTTAGG, the switch fluorescence ratio was 1.02. CCTCGTTCAA showed a switch fluorescence ratio of 4.09. For CCTCTAAGAG, the switch fluorescence ratio was 1.49. With CCTCTGGATG the switch fluorescence ratio was 1.71. In the case of CCTGAAGGCT, the switch fluorescence ratio was 1.03. Work on CCTGACGACT yielded a switch fluorescence ratio of 1.63. Sequence CCTGACTGGG has a switch fluorescence ratio of 1.05. In the case of CCTGACTTGC, the switch fluorescence ratio was 1.22. Work on CCTGAGCCCA yielded a switch fluorescence ratio of 1.15. CCTGCCGGTA gave a switch fluorescence ratio of 1.19. For CCTGCGATAG, the switch fluorescence ratio was 4.75. CCTGCTACAG was tested, and the switch fluorescence ratio was 1.1. In the case of CCTGCTAGCG, the switch fluorescence ratio was 1.1. CCTGCTCAGT gave a switch fluorescence ratio of 1.16. CCTGGCAAAG gave a switch fluorescence ratio of 2.06. With CCTGGCACGC the switch fluorescence ratio was 1.64. For CCTGGGAACT, the switch fluorescence ratio was 1.03. In the case of CCTGGGGACT, the switch fluorescence ratio was 0.97. With CCTGGTCTAG the switch fluorescence ratio was 0.952. CCTGTAAGCG showed a switch fluorescence ratio of 1.16. For CCTGTGAGGA, the switch fluorescence ratio was 1.01. CCTGTGGTCG showed a switch fluorescence ratio of 1.04. In the case of CCTGTTGAGG, the switch fluorescence ratio was 1.02. For CCTTAAAT, the switch fluorescence ratio was 1.02. With CCTTAATTCA the switch fluorescence ratio was 0.979. In the case of CCTTAGTATG, the switch fluorescence ratio was 0.966. Work on CCTTCATACG yielded a switch fluorescence ratio of 2.38. CCTTCATTAA was tested, and the switch fluorescence ratio was 1.05. Sequence CCTTCATTTT has a switch fluorescence ratio of 1. Work on CCTTCGACC yielded a switch fluorescence ratio of 3.41. Sequence CCTTCGTATT has a switch fluorescence ratio of 4.09. CCTTCGTGGT gave a switch fluorescence ratio of 3.87. In the case of CCTTCTTTGG, the switch fluorescence ratio was 1.04. For CCTTGAATC, the switch fluorescence ratio was 1.03. In the case of CCTTGACCAC, the switch fluorescence ratio was 1.1. For CCTTGAGAAA, the switch fluorescence ratio was 1.01. CCTTGATGG showed a switch fluorescence ratio of 1.02. With CCTTGCGAAC the switch fluorescence ratio was 4.24. CCTTGCGGAC showed a switch fluorescence ratio of 3.81. For CCTTGGACTG, the switch fluorescence ratio was 1.01. For CCTTGGGCA, the switch fluorescence ratio was 1.03. CCTTGGGGA gave a switch fluorescence ratio of 1.19. In the case of CCTTGTAGCG, the switch fluorescence ratio was 1.14.
